Assay results: PubChem BioAssay AID2451 (National Center for Advancing Translational Sciences (NCATS), 2010)
Where “and” joins values, the source holds several entries; their conditions need not be identical. Equal entries are not always repeated. The whole screen tested about 290,000 compounds, of which about 2,100 (0.72%) were called active. Inconclusive results, whose numbers are uncertain, are shown with a selection of clear calls. The call rests on the fitted dose curve; in most records, active means well fitted inhibition curve with a large enough effect; inconclusive means small, poorly fitted or top-dose-only effect, or effect the other way; inactive means flat fitted curve, though single readings scatter. A potency beside an inconclusive call is a rough fit, not a confirmed value.

Molecular target: Fructose-bisphosphate aldolase (Giardia intestinalis (strain ATCC 50803 / WB clone C6)) (UniProt A8B2U2)
Assay: qHTS Assay for Inhibitors of Fructose-1,6-bisphosphate Aldolase from Giardia Lamblia; further: nearly all actives have a fitted effect of over 55% in size
Details: purified Giardia FBPA; activity, negative = inhibition: at 59.6 µM (top of the series) unless noted
Summary of the method: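 Giardia FBPA (40 nM reagent) was preincubated 10 min at RT with compound (up to 57.5 uM final), then substrate plus GAPDH/TPI/NAD/arsenate coupling system with diaphorase/resazurin was added; resorufin fluorescence (525/598 nm) was read after 20 min.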
On the % scale 0 is the no-effect control and ±100 the full control effect; potency means the concentration at half of the fitted maximal effect; tags describe the fitted curve by direction and shape.

Sequence of UniProt A8B2U2 (A8B2U2 whole entry, looked up): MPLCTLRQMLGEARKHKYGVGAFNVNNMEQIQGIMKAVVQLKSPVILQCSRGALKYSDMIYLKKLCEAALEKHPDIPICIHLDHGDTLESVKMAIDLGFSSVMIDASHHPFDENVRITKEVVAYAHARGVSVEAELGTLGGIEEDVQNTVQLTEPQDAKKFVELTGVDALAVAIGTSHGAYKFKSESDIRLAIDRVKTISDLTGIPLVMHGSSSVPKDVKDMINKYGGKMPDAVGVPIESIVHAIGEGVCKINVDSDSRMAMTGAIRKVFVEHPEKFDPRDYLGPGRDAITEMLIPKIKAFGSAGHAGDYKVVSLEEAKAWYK

| Compound | activity, negative = inhibition | Potency |
| --- | --- | --- |
| OCC1(Cc2cccc(Cl)c2)CCCN(Cc2cnn(-c3ccccc3)c2)C1 (stereo not given) | inactive: 1.33% | – |
| COc1ccc(CN2CCN(Cc3ccco3)CC2)cc1 | – | inconclusive: 12.6 µM [inhibitor, partial curve] |
| CCN(CC(=O)Nc1cccc(F)c1)Cc1nc2ccccc2c(=O)[nH]1 | – | inconclusive: 6.29 µM [inhibitor, partial curve] |
| O=C1N=C(N2CCCC2C(=O)O)S/C1=C\c1ccco1 (stereo not given) | – | inconclusive: 15.8 µM [inhibitor, single point] |
| O=C(O)c1cc2cc(Cl)ccc2[nH]1 | – | inconclusive: 14.1 µM [activator, partial curve] and inconclusive: 17.7 µM [activator, partial curve] |
| COc1cc(CN2CCN(c3cccc(C)c3C)CC2)cc([N+](=O)[O-])c1O | – | inconclusive: 19.9 µM [inhibitor, partial curve] |
| COc1ccccc1NCC(O)COc1ccc(C(C)(C)C)cc1 (stereo not given) | – | active: 17.7 µM |
| Fc1ccc(NC(=S)NNc2ncc(C(F)(F)F)cc2Cl)c(F)c1 | inactive: 8.1% | – |
| COc1ccc2nc(-c3ccc(Cl)cc3)cc(C(=O)O)c2c1 | – | inconclusive: 15.8 µM [inhibitor, partial curve] |
| c1cc2cn[nH]c2cc1NC1CCCCCC1 | – | inconclusive: 3.97 µM [inhibitor, full curve] |
| O=C(CCN1C(=O)C2C3C=CC(C4CC34)C2C1=O)Oc1cccc2cccnc12 (stereo not given) | – | inconclusive: 19.9 µM [inhibitor, single point] |
| O=C(Nc1ccc(C(=O)Nc2ccc(C(=O)Nc3ccc(S(=O)(=O)O)c4cc(S(=O)(=O)O)cc(S(=O)(=O)O)c34)cc2)cc1)Nc1ccc(C(=O)Nc2ccc(C(=O)Nc3ccc(S(=O)(=O)O)c4cc(S(=O)(=O)O)cc(S(=O)(=O)O)c34)cc2)cc1 | – | inconclusive: 25.1 µM [activator, partial curve] |
| Cc1cccc(NC(=O)c2ccc(-n3cccn3)c([N+](=O)[O-])c2)c1 | inactive: -29.9% | – |
| COc1ccc(OC)c(-n2c(=S)[nH]c3cc(C(=O)N(C)Cc4ccccc4)ccc3c2=O)c1 | – | inconclusive: 17.7 µM [inhibitor, single point] |
| COc1ccccc1NS(=O)(=O)c1cccc(NC(=O)c2cc3ccccc3oc2=O)c1 | inactive: 10.9% | – |
| Cc1cc(/C=C2/SC(=O)NC2=O)c(C)n1-c1ccc(N2CCOCC2)cc1 | inactive: -24.4% | – |
| COC(=O)C1=C(C)N(Cc2ccccc2)C2=C(C(=O)c3ccccc3)C(c3ccccc3)[C@@](O)(C(=O)OC)C(=O)N2C1c1ccccc1 (stereo not given in full) | inactive: -0.0712% [at 12.9 µM] and inactive: 1.63% [at 12.9 µM] | – |
| Cn1nc(C(=O)N2CCC(C(N)=O)CC2)c2c1-c1ccccc1SC2 | inactive: -12.8% | – |
| COc1cc(C(=O)Nc2nc3ccc(S(C)(=O)=O)cc3s2)cc(OC)c1C | – | inconclusive: 15.8 µM [inhibitor, single point] |
| O=C(NCc1ccco1)c1ccccc1NS(=O)(=O)c1ccc(Cl)s1 | inactive: 16.5% | – |
| COc1ccc([N+](=O)[O-])cc1NCC(=O)c1ccc(C)cc1 | – | inconclusive: 22.4 µM [inhibitor, partial curve] |
| Cc1cc(/C=C2/NC(=O)NC2=O)c(C)n1C | – | inconclusive: 19.9 µM [inhibitor, partial curve] |
| O=C(N=Nc1c(O)[nH]c(=O)[nH]c1=O)C1COc2ccccc2O1 (stereo not given) | – | inconclusive: 11.2 µM [inhibitor, partial curve] |
| Cc1sc2ncn(CC(=O)NCCCN3CC(C)CC(C)C3)c(=O)c2c1S(=O)(=O)N1CC(C)CC(C)C1 (stereo not given) | inactive: 5.15% | – |

| Compound | activity, negative = inhibition | Potency |
| --- | --- | --- |
| O=C(CN1CCN(c2ccccn2)CC1)Nc1nc2ccccc2s1 | – | inconclusive: 7.08 µM [inhibitor, partial curve] |
| CCOC(=O)c1ccc(NC(=O)CN2CCN(Cc3ccccc3)CC2)cc1 | inactive: 4.75% | – |
| Cn1c(Cl)c(/C=N/OC(=O)c2ccccc2Cl)c2ccccc21 | inactive: -3.48% | – |
| OCCN(Cc1ccccc1)Cc1ccccc1Cl | – | inconclusive: 14.1 µM [inhibitor, partial curve] |
| COc1ccc(OC)c(C2C3=C(N=C4SCC(=O)N42)c2ccccc2CC3)c1 (stereo not given) | – | inconclusive: 15.8 µM [inhibitor, single point] |
| CN(C)c1cccc2c1c(NC(=O)c1ccc(Cl)cc1)nn2C | – | active: 17.7 µM |
| N#Cc1c(-c2ccc3c(c2)OCO3)csc1N | inactive: -26.8% | – |
| COc1ccc(C(=O)Nc2cc(C)nn2-c2nc3ccccc3[nH]2)c(OC)c1 | – | active: 17.7 µM |
| CCOc1ccccc1OCCOCCN1CCN(Cc2ccccc2)CC1 | – | inconclusive: 19.9 µM [inhibitor, partial curve] |
| CCOc1ccc(OCCCCNC(C)(C)C)cc1 | – | inconclusive: 22.3 µM [inhibitor, partial curve] |
| CCCCOC(=O)Nc1ccc(C(N)=O)cc1 | inactive: 5.75% | – |
| Cc1ccc(NC(=O)[C@H](Cc2ccccc2)NC(=O)[C@@H]2Cc3ccccc3CN2)c(C)c1 | – | inconclusive: 22.4 µM [inhibitor, partial curve] |
| OCC1CCCCN1CC(O)COC(c1ccc(F)cc1)c1ccc(F)cc1 (stereo not given) | – | inconclusive: 12.6 µM [inhibitor, partial curve] |
| NNc1n[nH]c(=S)n1N | – | active: 1.77 µM |
| Cc1cc(C(=O)COC(=O)c2ccc([N+](=O)[O-])o2)c(C)n1CC1CCCO1 (stereo not given) | – | inconclusive: 19.9 µM [inhibitor, partial curve] |
| Cn1c(=O)c2[nH]c(SCC(=O)c3ccc(F)cc3)nc2n(C)c1=O | – | inconclusive: 22.3 µM [inhibitor, partial curve] |
| CCOC(=O)Cc1csc(NC(=S)NC(=O)CC(C)C)n1 | – | inconclusive: 14.1 µM [inhibitor, partial curve] |
| CC(=O)Nc1sc2c(c1C(N)=O)CCC2 | inactive: -1.33% | – |
| Fc1ccccc1/C=N/N1CCN(Cc2ccccc2Cl)CC1 | – | inconclusive: 15.8 µM [inhibitor, partial curve] |
| Cn1cnc([N+](=O)[O-])c1Nc1ccc(O)cc1 | – | inconclusive: 22.3 µM [inhibitor, single point] |
| O=[N+]([O-])c1nn(-c2ccc3c(c2)OCCO3)n(O)c1=Nc1ccccc1 | – | inconclusive: 17.7 µM [inhibitor, single point] |
| CCn1c(-c2c(Cl)c(C)nn2C)n[nH]c1=S | – | inconclusive: 17.7 µM [inhibitor, single point] |
| Cc1cc2nc(-c3cccnc3SCC(=O)NCc3ccco3)[nH]c2cc1C | – | inconclusive: 17.8 µM [inhibitor, partial curve] |
| Cc1ccc(C(=O)NC(=S)N2CC(C)OC(C)C2)cc1[N+](=O)[O-] (stereo not given) | – | inconclusive: 19.9 µM [inhibitor, partial curve] |

| Compound | activity, negative = inhibition | Potency |
| --- | --- | --- |
| Cc1ccc([N+](=O)[O-])c(OCCCNCC(C)O)c1 (stereo not given) | – | inconclusive: 19.9 µM [inhibitor, partial curve] |
| COc1ccc(NC(=O)Cc2nnc(SCC(=O)NC3=NCCS3)n2C)cc1 | – | inconclusive: 39.8 µM [inhibitor, partial curve] |
| C=CCc1c(C)nc(-c2ccccc2)nc1Nc1ccc(O)cc1 | inactive: -2.17% | – |
| COc1ccccc1CNc1nc(-c2cc(C)n(C)c2C)cs1 | – | inconclusive: 19.9 µM [inhibitor, single point] |
| COc1ccccc1N1Cc2ccccc2C1 | inactive: -27.1% | – |
| C/C(CC(=O)NCc1ccccc1)=N\NC(N)=S | – | inconclusive: 19.9 µM [inhibitor, partial curve] |
| Cc1ccc(NC(=O)C(=O)Nc2ccccn2)cc1 | inactive: 2.04% | – |
| COc1cc(O)c(C(CCN2CCCC(C)C2)c2ccc3c(c2)OCO3)c(OC)c1 (stereo not given) | – | inconclusive: 22.3 µM [inhibitor, partial curve] and inconclusive: 7.06 µM [inhibitor, partial curve] |
| Cc1cccc(NC2=C/C(=N/S(=O)(=O)c3cccs3)c3ccccc3C2=O)c1 | – | active: 0.199 µM |
| O=C1Nc2ccc(Br)cc2C1(O)c1ccccc1 (stereo not given) | inactive: 4.04% | – |
| CC(C)(CN1CCc2ccccc2C1)NS(=O)(=O)c1ccccc1 | – | inconclusive: 17.7 µM [inhibitor, single point] |
| CCN(CC)C(=O)c1c(C)[nH]c(=S)c(C#N)c1-c1ccco1 | – | active: 9.98 µM |
| Clc1nc(Cl)nc(N(c2ccccc2)c2ccccc2)n1 | – | inconclusive: 15.8 µM [inhibitor, partial curve] |
| Cc1ccc(CN2CCC(=O)N2)cc1 | inactive: -23.6% | – |
| Cc1cc(C)c(OCCCNCc2ccccc2)c(Br)c1 | – | inconclusive: 20 µM [inhibitor, partial curve] |
| COc1cc(OC)c(C2CC(=O)N3CN(c4ccccc4C)CSC3=C2C#N)cc1OC (stereo not given) | – | active: 4.47 µM |
| O=C(CSc1n[nH]c(-c2ccncc2)n1)Nc1ccc(Cl)c(C(=O)O)c1 | – | inconclusive: 28.2 µM [inhibitor, single point] |
| CCCN(CCC)c1nc(N)c(C#N)c(CC#N)c1C#N | – | inconclusive: 12.6 µM [inhibitor, partial curve] |
| COc1cccc(-c2nc(C(=O)NCC3CCCO3)cc3c2[nH]c2ccccc23)c1 (stereo not given) | inactive: 12% | – |
| Cc1ccc(C)c(S(=O)(=O)NNC(=O)c2sc(NS(=O)(=O)c3ccccc3)nc2C)c1 | – | inconclusive: 28.2 µM [inhibitor, partial curve] |
| Cc1cc(Cl)ccc1OCC(=O)Nc1ccccc1N1CCOCC1 | inactive: -6.28% | – |
| COc1c(F)c(F)c(C(=O)O)c(Nc2ccc(C)cc2)c1F | – | inconclusive: 15.8 µM [activator, single point] |
